B1: TPR 5TU (parent)
chain: GGAUCUUCUCGAUCUAACAAAAAAGACAAAUCUGCCACAAAGCUUGAGAGCAUCUUCGGAUGCAGAGGCGGCAGCCUUCGGUGGCGCGAUAGCGCCAACGUUCUCAACUAUGACACGCAAAACGCGUGCUCCGUUGAAUGGAGUUUAUCAUG

Variants at the floor of the assay are shown more often than the library holds them.

Variants of B1 are the subject of this data set. Description: polymerase ribozyme fitness, log enrichment relative to wild type (log ratio); higher = more active; in vitro selection for triplet polymerase activity. An outline of the steps: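 Libraries of mutants in each subunit of a heterodimeric triplet polymerase ribozyme were generated by PCR and transcribed. In triplicate, each went through one in vitro selection round: annealing with biotinylated primer, partner subunit and triplets; frozen incubation at −7 °C; gel excision of extended constructs; streptavidin-bead capture; RT-PCR. Fitness, taken from Illumina sequencing of input and output libraries, is the logarithm of a genotype's enrichment over wild-type enrichment, averaged across replicates with inverse-variance weights. The logarithm is base 2, and genotypes needed ≥10 input reads and ≥1 read per output to be kept.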
Take U13G U15C A41C A64U G71A C116G G136A: the “polymerase ribozyme fitness (log ratio)” value was ≤ -4.2. The result for C14G A20U A41G U44A G67C A110U G136U reads ≤ -4.2.

On to U13C A22G A49U G68C C79G, for which the “polymerase ribozyme fitness (log ratio)” value is ≤ -4.2.

Regarding U13G A29C G58A A106C U144C, the “polymerase ribozyme fitness (log ratio)” value was ≤ -4.2. As for C14G A22C G46A G67C G68C G81U C96G A97C, the figure is ≤ -4.2. The result for U13G A21C C54G C75A U82A A119U C131G reads ≤ -4.2; that for U13G A28C C57A G83U G128A, ≤ -4.2; that for C14A U15G A26U G86U G92U A107U U109A C116A, ≤ -4.2. As for U13C C57U G67C G71A A106G A110U U134A, the “polymerase ribozyme fitness (log ratio)” value was ≤ -4.2. As for U13A U56A C87A A91U G140C, the figure is ≤ -4.2; as for C14G A19G U44C A52G G83C G124A, ≤ -4.2.

Turning to U13C C14U G71A G81C C103A U109A, the “polymerase ribozyme fitness (log ratio)” value is ≤ -4.2.

For U13G A30U U33A G48C C51U U53C G92C C105U C114A A120G, the “polymerase ribozyme fitness (log ratio)” value was ≤ -4.2.

Regarding U13G A30U C87U C105G A115G G143U, the “polymerase ribozyme fitness (log ratio)” value is ≤ -4.2.

On to U13G A19C A29G G50C U127C, for which the “polymerase ribozyme fitness (log ratio)” value was ≤ -4.2. For U13C G88A C99G, the “polymerase ribozyme fitness (log ratio)” value was -4.01. As for U13G C14U A17G C93A A98C, the figure is ≤ -4.2.

For U13G C108U, the “polymerase ribozyme fitness (log ratio)” value was ≤ -4.2. The result for C14A U44G G88A G94U C108A A113U reads ≤ -4.2.

With U13G A29G A89U U104G A106C A113U, the “polymerase ribozyme fitness (log ratio)” value was ≤ -4.2. As to C14A C27G, the “polymerase ribozyme fitness (log ratio)” value was ≤ -4.2. As for C14A C87A A97U G143A, the figure is ≤ -4.2; as for U13G A39C G62A A107U U139A A142U, ≤ -4.2; as for U13A A29G A49U U55A G83C, ≤ -4.2. As for C14A A21U A26U A52C G68A C95U A98U, the figure is ≤ -4.2; as for U13A C54G G68A C75G C76G U90G C95G A119U, ≤ -4.2. As for U13G U56G G84U C85A C99U, the figure is ≤ -4.2. In the case of U13C C18G G42U U44A A47G, the “polymerase ribozyme fitness (log ratio)” value is ≤ -4.2. As for U13G G94C G143U U145G, the figure is ≤ -4.2; as for C14G A26G A47C G58C C72A U145A, ≤ -4.2.

On to C14A A29G C43U G46A C96A A98U, for which the “polymerase ribozyme fitness (log ratio)” value was ≤ -4.2. The result for C14A A16G A64C G83C C125U G136U U145G reads ≤ -4.2; that for U13A C27G C96U G141U, ≤ -4.2.

On to U13C C57A G58A A66G U82G C116U, for which the “polymerase ribozyme fitness (log ratio)” value was ≤ -4.2.

Turning to C14A C85G C129U, the “polymerase ribozyme fitness (log ratio)” value is ≤ -4.2. Take U13A U15C C27A A29G C93U A119C G126C: the “polymerase ribozyme fitness (log ratio)” value was ≤ -4.2.

As for C14A A16C U56G C57G A91C G136U, the “polymerase ribozyme fitness (log ratio)” value is ≤ -4.2. For U13G C36G U45G A66U G94U A121C U127A, the “polymerase ribozyme fitness (log ratio)” value is ≤ -4.2. The result for C14A A20G A49G C95U C105G C118G A120G U146A U148C reads ≤ -4.2; that for C14G A21C A52G C57U A73U C87G A89C C116A, ≤ -4.2.

With U13G C54A G58C, the “polymerase ribozyme fitness (log ratio)” value was ≤ -4.2. As for U13G G50U C93U, the figure is -3.9; as for C14A C32U G84U G100U C103G, ≤ -4.2; as for U13G G86U, -3.56. Consider C14A G59A U82A G84U, for which the “polymerase ribozyme fitness (log ratio)” value was -4.06. As for C14A A17C C93U C116G, the figure is -2.99; as for U13G C85U A106G G126U G140C, -3.96. As for U13G A37G G59A A60G U90A C93G U139C G141U G143A, the figure is ≤ -4.2; as for U13C A66U G88A A91U, ≤ -4.2. The result for U13G A19C A66C G70U G88C U90C reads ≤ -4.2; that for U13G A20U C43A C116A C118U C125U G140C, ≤ -4.2; that for U13C G68A C85A G92A G126A G140A A142C, ≤ -4.2. Regarding U13G C76A C96U C131U U148G, the “polymerase ribozyme fitness (log ratio)” value was ≤ -4.2.

As for U13C A40C G48U G81C U145C U148A, the “polymerase ribozyme fitness (log ratio)” value was ≤ -4.2. The result for C14A G94A reads -1.67; that for C14A A17U A21G C54U A60G, -3.75; that for C14G A17G A60G G65U C85U A121G U148C, ≤ -4.2. The result for U13G U31C C116G A119U U148G reads ≤ -4.2; that for C14G A20C G50U U53A G126U U139A, ≤ -4.2; that for C14G A21U C54A, ≤ -4.2. As for U13G U15A C51U C96A A121G, the figure is -2.76; as for C14G A16G C38U U61A G94A A122C, ≤ -4.2; as for U13G C18U A30C U45A C54U G68A C99A G128U, ≤ -4.2. Consider U13G G59U C96U, for which the “polymerase ribozyme fitness (log ratio)” value is -0.998. The result for C14A A28G G86U C93U C114U G136A U146C reads ≤ -4.2; that for U13G A60C C85G C116U, ≤ -4.2.

Take C14A C76G C87A A119G A138C U148A: the “polymerase ribozyme fitness (log ratio)” value was ≤ -4.2.

Regarding C14A A40G A47C G50C C54G C76A C116U C132G, the “polymerase ribozyme fitness (log ratio)” value is ≤ -4.2. As to C14A A19G A29G C38U A41U A107U A142C, the “polymerase ribozyme fitness (log ratio)” value was ≤ -4.2. C14A A24G A29U G50U U53A U55A G92A C99G U102A C114G U134G: the “polymerase ribozyme fitness (log ratio)” value was ≤ -4.2. For C14A G100A A110U, the “polymerase ribozyme fitness (log ratio)” value was ≤ -4.2.

Regarding C14G A20U A21G C36U U53G G58U C85U G136A U146A, the “polymerase ribozyme fitness (log ratio)” value was ≤ -4.2. The result for U13G A20U A22G A28C C85G reads ≤ -4.2. The result for C14A C93G reads ≤ -4.2; that for C14A A26C U55G G68C C72U G92A A147G, ≤ -4.2. As for C14A G25A U61A G74U, the figure is ≤ -4.2; as for C14G A23U C57A C85U C95U C116A, ≤ -4.2; as for C14A G50C C51A G71A G86U G100U A122G, ≤ -4.2.

Take U13G C27G U44A A47U G86A C99A U104C A142C: the “polymerase ribozyme fitness (log ratio)” value was ≤ -4.2. The result for U13A G67A G81C U90C G152A reads ≤ -4.2; that for C14G A22G G25A A28C G50C G84U U104G, ≤ -4.2; that for U13C A26U U90G, ≤ -4.2. The result for C14A C57A C87U C93U U101C U134A G141C reads ≤ -4.2.

The values above are taken from the RNAGym collection of RNA variant scans (doi:10.1073/pnas.2313332121).
